Test results as given in PubChem BioAssay AID488969 (Vanderbilt High Throughput Screening Facility, 2010).
Over roughly 110,000 compounds, “z-score” has its median near -0.1; the highest 2% begin near 2. The list shows a part of the results. Activity calls are given as the source filed them.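 The calls were made as follows: active = z-score in the third read window above 3 or below -3; inactive = the rest.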

molecular target: Metabotropic glutamate receptor 8 (Rattus norvegicus) (UniProt P70579); assay: rat mGluR8 modulators via GIRK flux, primary screen, cell-based, thallium flux, HTS (AID 488969); conditions: HEK293 rat mGluR8, GIRK (G protein-gated inwardly rectifying potassium channel) thallium flux, FluoZin2; at 10 µM; stronger effect = higher value; submaximal glutamate (EC20) added with thallium
Chain of UniProt P70579 (P70579 whole entry, looked up): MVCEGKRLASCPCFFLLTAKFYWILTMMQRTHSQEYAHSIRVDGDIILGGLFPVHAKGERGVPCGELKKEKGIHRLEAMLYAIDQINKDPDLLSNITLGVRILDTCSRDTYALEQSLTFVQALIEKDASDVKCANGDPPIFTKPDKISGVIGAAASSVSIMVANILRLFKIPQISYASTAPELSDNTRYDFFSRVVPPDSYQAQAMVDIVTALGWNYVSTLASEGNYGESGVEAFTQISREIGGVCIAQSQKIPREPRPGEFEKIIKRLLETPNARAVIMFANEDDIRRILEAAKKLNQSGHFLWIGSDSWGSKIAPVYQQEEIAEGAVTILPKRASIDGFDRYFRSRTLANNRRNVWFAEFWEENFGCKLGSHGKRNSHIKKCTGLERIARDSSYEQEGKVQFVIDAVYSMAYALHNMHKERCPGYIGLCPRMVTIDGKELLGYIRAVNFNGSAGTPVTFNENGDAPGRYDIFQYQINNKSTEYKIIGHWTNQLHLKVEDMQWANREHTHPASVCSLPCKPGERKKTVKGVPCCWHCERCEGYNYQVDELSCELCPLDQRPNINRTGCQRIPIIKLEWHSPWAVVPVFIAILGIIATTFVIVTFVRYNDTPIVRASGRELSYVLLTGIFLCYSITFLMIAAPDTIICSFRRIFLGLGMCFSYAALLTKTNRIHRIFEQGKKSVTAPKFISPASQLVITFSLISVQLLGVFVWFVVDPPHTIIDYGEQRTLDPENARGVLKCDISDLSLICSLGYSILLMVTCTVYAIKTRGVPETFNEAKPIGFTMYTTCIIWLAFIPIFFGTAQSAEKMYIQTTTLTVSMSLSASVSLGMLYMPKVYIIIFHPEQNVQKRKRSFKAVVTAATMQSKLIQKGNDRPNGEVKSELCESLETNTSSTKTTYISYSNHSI

Row | SMILES | z-score
1 | CC1CCCN(Cc2nc3c(c(=O)n(C)c(=O)n3C)n2CC(N)=O)C1 (stereo unspecified) | -0.149
2 | Nc1ccc(Cc2nc3cc4ccccc4cc3[nH]2)cc1 | 0.194
3 | O=c1[nH][nH]c(-c2ccccc2)c1C=Nc1ccccc1 | -0.278
4 | Nc1ccnn1Cc1cccnc1 | 0.559
5 | COc1ccc(C(C)=O)cc1CN1C(=O)C(C)N(c2ccc(C)cc2)C1=O (stereo unspecified) | -0.0103
6 | CCOC(=O)c1[nH]c(C)c(C(=O)OCC(=O)N2c3ccccc3CC2C)c1C (stereo unspecified) | -0.182
7 | CCOC(=O)N1CCN(C(=O)CSc2nc3c(c(=O)n2-c2ccccc2OC)SCC3)CC1 | active: -3.47
8 | N#Cc1cccc(NC(=O)C2SC(=Nc3ccccc3)C(C(=O)N3CCOCC3)=C2N)c1 (stereo unspecified) | -0.341
9 | Cc1cc(NC(=O)Cn2nnc3sc4c(c3c2=O)CCC(C(C)(C)C)C4)no1 (stereo unspecified) | 0.413
10 | CC(C)[C@H](NC(=O)c1ccccc1)C(=O)OCC(=O)Nc1ccc(Cl)cc1C(F)(F)F | -0.227
11 | Cc1ccc(S(=O)(=O)N2CCCC2C(=O)Oc2ccccc2)cc1 (stereo unspecified) | 0.0214
12 | COc1ccccc1OCc1nnc(SCC(=O)c2cc(Cl)ccc2OC)o1 | -0.0271
13 | N#C/C(=C\c1cccs1)C(=O)NCc1cccnc1 | -0.112
14 | O=C(Nc1cccc(F)c1)c1ccc(S(=O)(=O)N2CCOCC2)cc1 | -0.354
15 | COc1ccc(-n2c(Cc3cccn3C)nnc2SCC(N)=O)cc1 | 0.498
16 | O=C(Oc1cccc(-n2cnnn2)c1)c1ccco1 | 0.214
17 | CCN1CCN(c2cc(C)c3cc(NC(=O)c4cncc(Br)c4)ccc3n2)CC1 | -0.912
18 | CCN(CC)CC(C)OC(=O)COc1ccc(OC)cc1 (stereo unspecified) | 0.117
19 | Cc1ccc(-n2nnc3c(=O)n(CC(=O)N4CCC(C)CC4)cnc32)cc1 | -0.14

Row | SMILES | z-score
20 | CC(CN1CCOCC1)OC(=O)c1ccc2c(c1)OCCO2 (stereo unspecified) | 0.0522
21 | Cc1cc(C)c(NC(=O)/C(=C/c2ccco2)c2ccccc2)c(C)c1 | active: -3.36
22 | Cc1cnc(C(=O)Nc2cc(S(=O)(=O)N3CCOCC3)ccc2N2CCN(C)CC2)cn1 | 0.0173
23 | O=C(NN=C1C2CC3CC(C2)CC1C3)c1cc(Cl)ccc1O | 0.0729
24 | COc1ccc(C)cc1S(=O)(=O)N(C)CC(=O)NC1CCCC1 | -0.639
25 | CCOC(=O)c1ccc(NC(=S)N(CCCN(CC)CC)Cc2ccco2)cc1 | -0.374
26 | NC(=O)CSc1ncnc2c1cnn2Cc1ccccc1 | active: 4.34
27 | COC(=O)c1ccc(CSc2nc3c(cnn3-c3ccc(F)cc3)c(=O)[nH]2)o1 | -0.635
28 | CCC1CCCCN1CCCNC(=O)c1cn(CC(C)C)c(=O)c2cc(OC)c(OC)cc12 (stereo unspecified) | -0.536
29 | Cc1nn(CC(=O)Nc2ccc3c(c2)nc(CCN2CCCCC2)n3C)c(=O)c2ccccc12 | -0.174
30 | O=C(/C=C/c1ccccc1Cl)N(c1ccccn1)C1CCCCC1 | -0.352
31 | CCOC(=O)c1[nH]c(=O)c2ccccc2c1O | -0.0367
32 | O=C1CC(N2CCN(c3ccc(F)cc3)CC2)C(=O)N1Cc1cccs1 (stereo unspecified) | -0.198
33 | CCSc1nc2ccccc2n1C(=O)Oc1ccccc1 | -0.129
34 | Cn1c(C(=O)NCCCN2CCCCCC2)cc2c(=O)n(C)c3ccccc3c21 | 2.52
35 | CCOC(=O)CSc1nc2ccccc2c(=O)n1CCN1CCOCC1 | 0.339
36 | C/C(=N\NC(=O)C(=O)Nc1cc(Cl)ccc1Cl)c1ccncc1 | -0.256
37 | Cc1occc1C(=O)Nc1ccc(S(=O)(=O)N2CCCC2)cc1 | 0.258
38 | CC1CCCCN1CCNS(=O)(=O)c1ccc2c(c1)oc(=O)n2C (stereo unspecified) | -0.735

Row | SMILES | z-score
39 | COc1cccc(CN2CCN(S(=O)(=O)c3ccc(Br)cc3)CC2)c1 | -0.079
40 | Cc1cc(C)cc(-n2c(C)cc(C(=O)CSc3nnnn3C)c2C)c1 | -0.224
41 | CCN(CC)C(=O)c1cc(C(C)(C)C)c(O)c(C(C)(C)C)c1 | -0.449
42 | COc1cccc(C2CC(C(F)(F)F)n3ncc(C(=O)NC(C)(C)C)c3N2)c1 (stereo unspecified) | -0.184
43 | Cn1c(C(=O)OC(C(=O)NC2CCCC2)c2cccnc2)cc2sccc21 (stereo unspecified) | 0.234
44 | COc1ccc(OC)c(NC(=O)CCN2CC(C)OC(C)C2)c1 (stereo unspecified) | 0.46
45 | CCOc1cc(/C=N/NC(=O)COc2ccc(C)cc2)ccc1OC(=O)c1cccs1 | -0.0248
46 | CSc1nsc(SCC(=O)N2CCCc3ccccc32)n1 | -0.337
47 | CN1C(=O)SC(Nc2ccc(F)cc2)C1=O (stereo unspecified) | 0.185
48 | COc1ccc(S(=O)(=O)N2CCCCC2)cc1NC(=O)c1ccc2ccccc2n1 | -0.376
49 | O=C1NC(=O)C(=C2CCCCCC2)S1 | 0.367
50 | Cc1ccc(-c2nn(-c3ccccc3)cc2C2CC(c3cccs3)=NN2C(=O)CCCC(=O)O)cc1 (stereo unspecified) | -0.217
51 | Nc1nnnn1/N=C/c1ccc(O)cc1 | -0.442
52 | Cc1ccc(NC(=O)Cn2c(-c3ccc(F)cc3)cnc2SCC(=O)Nc2c(C)cccc2C)cc1 | -0.136
53 | FC(F)(F)c1nc(-c2ccncc2)ncc1-c1nnnn1-c1ccccc1 | -0.375
54 | CSc1cccc(NC(=O)C(C)NS(=O)(=O)c2ccc(F)cc2)c1 (stereo unspecified) | -0.405
55 | CCOC(=O)CSc1nc(C)c(C(C)=O)cc1C#N | 0.245
56 | Cc1[nH]c(=S)c(C#N)c(C)c1C(=O)Nc1ccccc1 | -0.121
